The values below come from PMC12136788.

This is one part of the list.

T1: UNK ZnF1-3 (human, UniProt Q9C0B0 31-174)
T1 sequence: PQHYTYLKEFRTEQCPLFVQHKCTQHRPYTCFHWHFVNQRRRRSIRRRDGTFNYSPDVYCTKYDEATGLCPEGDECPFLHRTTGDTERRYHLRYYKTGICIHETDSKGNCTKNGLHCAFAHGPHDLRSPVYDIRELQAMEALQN

B1: chr17:34054454:34054455:+_ENSMUSG00000051390_ENSMUST00000053429|mus_mus|motif|central (ssRNA)
RNA: GGGAGUUCUACAGUCCGACGAUCAAAUGCAUCCUGGGAGGUAGAGGAGAAAUCAGUCGACUCCCGGGGGCUGAAGUAGUUGCGGCUGCUGGGAGACUGAUUCUCACUGGCCCUGCUGGAGGUAUGGGAACGGACAGAGCCUACCAACAGAGGAUUGAGCAUCA
B2: chr3:135071361:135071362:-_ENSMUSG00000028165_ENSMUST00000029815|mus_hu|FALSE|FALSE (ssRNA)
RNA: GGGAGUUCUACAGUCCGACGAUCUCUCUGUGAAAACACAAGUAAUUCUUGAUGGCAAUAUUUUUCUUAAUUCACCUAACCAAAUGCAGUUUGGAAGGCCAAAACGAGAAAAAAACACUUCAGAUUAUCAAAACCAAAAGAGAUCAACAGAGGAUUGAGCAUCA
B3: chr2:43450610:43450611:-_ENSG00000152518_ENST00000282388|hu_hu|FALSE|FALSE (ssRNA)
RNA: GGGAGUUCUACAGUCCGACGAUCAGUUAAAUAGUUUUCAUAUUGAGUUGUGGUGCAGUGGUGCGAAUCAACUCAAAACAGCUAAAAAUUCAGCAGUUAUUCUCCAACAAUUACAAAGUAAGCUCUGCGCAAGGCUUCCAGAGGCAACAGAGGAUUGAGCAUCA
B4: 50245285_50249986_740_CDS_ENSG00000121274_ENST00000436909|human|control|control (ssRNA)
RNA: GGGAGUUCUACAGUCCGACGAUCACUAGUAGGUAAAUAAAGUCCAGUUUUAAAACUUCCAAAUAUCUGGACGUCAGCGCUGGGCCAGAGCUCCUUAAUUACACUCUCGAUCCUGUUCACCACCUCCAUCCGCAUCUUCUCCUCCAACAGAGGAUUGAGCAUCA
B5: 133221040_133221160_1046_CDS_ENSMUSG00000043257_ENSMUST00000062118|mouse|control|control (ssRNA)
RNA: GGGAGUUCUACAGUCCGACGAUCUGACAAGCACACAGAGGCCAUCAGCUUCACGAGGGGCUUCCAGGGGCUCAGCACCGCCAGAGAGGAACAAAAGCCUCUGCACUGGGAGUGCAGGAGGAAGCCAAGGCUCACCAGCCCAUUCAACAGAGGAUUGAGCAUCA
B6: chr9:108846149:108846150:+_ENSMUSG00000025651_ENSMUST00000026743|mus_mus|FALSE|FALSE (ssRNA)
RNA: GGGAGUUCUACAGUCCGACGAUCGUGCUCUCGAGUGCUGUAGGCAUUAAGAUGAGCCCCAAUACUCUCUACCUCCUUCUCUAAGGCAUUGCCAGGCCGAUUCUUUGUUCCCUUGAAAGCCAGAUGUUCCAAAAAGUAGCCUGCCAACAGAGGAUUGAGCAUCA
B7: 87964793_87964913_1549_CDS_ENSG00000188994_ENST00000369577|human|control|control (ssRNA)
RNA: GGGAGUUCUACAGUCCGACGAUCUUUUAUCUCUCUCUUCUUCUGCUUUUCAUCACCAAUGUCUUUAAGAAGGCCAGAAUUAGCACCAACUCCACCAGAAAGCCCAUUCAUAGAAGUUUCUUUACUCUCUUCUUGGUAGUCUACCAACAGAGGAUUGAGCAUCA
B8: 129698849_129698969_2618_CDS_ENSMUSG00000001052_ENSMUST00000001079|mouse|control|control (ssRNA)
RNA: GGGAGUUCUACAGUCCGACGAUCAUUCGGAUCUUCUCUGGACUGCAGAAGUCCUGCCCCCAAGGAAGGUAACUGUGUCUGAAAUACAGACACGCGGCCGCCCGUGGGAGACAUGAGUUUGAAGGCAGCCUGAAGUGCAGGUCCCAACAGAGGAUUGAGCAUCA
B9: chr7:109309172:109309173:-_ENSMUSG00000063550_ENSMUST00000070165|mus_mus|FALSE|FALSE (ssRNA)
RNA: GGGAGUUCUACAGUCCGACGAUCUGAUUUGGCUGUGCCUGUUGUUUGCAAAGCCUUUGGCCUGACUCUGGUAGCAGGGCGAGGUGUAAGUUUAUAAUGAGUAGGUGUUGUAAGAGCUUUCUGAGCAGCUGGAUUGGUUGGUUUCAACAGAGGAUUGAGCAUCA
B10: chr7:138235809:138235810:+_ENSG00000122779_ENST00000415680|hu_hu|FALSE|FALSE (ssRNA)
RNA: GGGAGUUCUACAGUCCGACGAUCGGAUGCAUCACACCUUGCACGAAGGAGGUGCCGUAACCGGUAUGUAAUCAGUCGUUUGCUAUAAAGUAAUGCUGUACUGCUGCCACUGGAAACUGCCCAUUUAGAAAAAUGCAUGACAUGCAACAGAGGAUUGAGCAUCA
B11: chr5:138643614:138643615:+_ENSG00000015479_ENST00000510056|perfect_dup|FALSE|FALSE (ssRNA)
RNA: GGGAGUUCUACAGUCCGACGAUCGUCAUAAUCAAGCACUGGGUUGAGACUAGGACCACGAUCAUCAAAACUAUCUCUUCUAAAGUGCCUUUUUUCUUCCCAAUCAUCCCUAGGUACUCUGUAUGGUGGCUCCCGUGUAGCAGACAACAGAGGAUUGAGCAUCA
B12: chr6:55002191:55002192:+_ENSMUSG00000029777_ENSMUST00000003572|mus_mus|motif|central (ssRNA)
RNA: GGGAGUUCUACAGUCCGACGAUCGUGGUCUGCUCGGAAGCACUCUCCGUUCUUCACGUCCUUCACCAUGAAGUCAGCAAAUUUGUCGGCGUGGCCAGAGGUCUUUAAAACUGGCUCAGGGGUGAGCAUGGUGCAGUCAAUCUCCAACAGAGGAUUGAGCAUCA
B13: 155539967_155540087_1442_ncRNA_ENSMUSG00000041936_ENSMUST00000154494|mouse|control|control (ssRNA)
RNA: GGGAGUUCUACAGUCCGACGAUCGUCAGGGCAACUUAGAUGUAGCCUGGCUUCUACUUCCAGCCUCCGGGGACAGGCAAACACAUUUUGGGAAGUAAGAUGAUGUCCCAAUUAUUAUCAGUUUUUUGAUAUCACAGUAUUGUCCAACAGAGGAUUGAGCAUCA
B14: chr11:29608385:29608386:+_ENSMUSG00000020458_ENSMUST00000102843|mus_hu|motif|central (ssRNA)
RNA: GGGAGUUCUACAGUCCGACGAUCCCUGGCUAAUUUAGAAAAUGAAUCAGUUUUAGAACUGAUCAAUGUAGGGAACUCAUCGGUAAUUUCAAUUGGAGAUGAAUCUGAAAACGUUUCAGUUUCUCUUAUCUGUGCUUCCUUAGACAACAGAGGAUUGAGCAUCA
B15: 94672737_94676055_4995_CDS_ENSMUSG00000040785_ENSMUST00000117648|mouse|control|control (ssRNA)
RNA: GGGAGUUCUACAGUCCGACGAUCCUUCUCAUCUGUGAGUGCACUGCUGAAUCCAAGGGACUGGUCCGGAUGUGGUUCACAUUCCUUAUCGAAUCCAUCAUUUUUCUGGGCAGGCAUUUCACUGGUAUUGAUAACCUUUUUAAUCAACAGAGGAUUGAGCAUCA
B16: chr5:37680062:37680063:+_ENSMUSG00000029121_ENSMUST00000031004|mus_hu|mus_mus_mus_hu_False|1_28 (ssRNA)
RNA: GGGAGUUCUACAGUCCGACGAUCUUUGGGUGUAGCUGGUACCUCGUACACAGGACCGUCAUACAUGCCCCUGGAAACCCCUUGCAAUCCAAAAACCUUAUUCCUGAUCCUGACACGCUGGUACAGGUGCUCCGGGAAUGGCUUCAACAGAGGAUUGAGCAUCA
B17: chr6:114281168:114281169:-_ENSG00000196591_ENST00000368632|hu_hu|hu_hu_hu_mus_True|78_98 (ssRNA)
RNA: GGGAGUUCUACAGUCCGACGAUCUUCCAUUUUUCGGUAUAAGCCAUAAUUUAGCAGCAAGUUAUGGGUCAUCCGGAUUCUAUGAGGCUUCAUGGGAUGACCCUGGCCAUAAUAAUAAUUGCCAAUAUCACCAUCAUAGUAGUACAACAGAGGAUUGAGCAUCA
B18: chr11:87793471:87793472:-_ENSMUSG00000020483_ENSMUST00000020775|mus_mus|mus_mus_mus_hu_False|1_18 (ssRNA)
RNA: GGGAGUUCUACAGUCCGACGAUCUGGACUUGAAAAUAAAAGAAUAAGCUGGAUCCCCCACCCCCCCACAUUGUCAACCCUACACGAGAGUUUUGAAGGCGACUCAUGAAAAUCAGCCUCAAUUGGCGCAAUGACCACCCACCCCAACAGAGGAUUGAGCAUCA
B19: 119167067_119167187_3135_ncRNA_ENSMUSG00000041477_ENSMUST00000149651|mouse|control|control (ssRNA)
RNA: GGGAGUUCUACAGUCCGACGAUCGUCUGCCGAGUCUAUCUAAUCCCUUGACUGGCAGGUCUAAAACCAAGUUUUCAAAUGGCUUUCCCAAUUAUGCAAAUGACAUUCUGAACUGGGUCUGACUGACUCCUACGGCUGCCAUGUCAACAGAGGAUUGAGCAUCA
B20: chr11:77340908:77340909:-_ENSG00000074201_ENST00000525064|hu_hu|hu_hu_hu_mus_True|8_38 (ssRNA)
RNA: GGGAGUUCUACAGUCCGACGAUCGUUUGGAUCCCUGGACACCGCAUGUAAACUAAUGGUGGGGUAUUCCAGUGAGAAUCCUAAUCCCGAACCAUCUAACCAAGACAGGCGGCUCUCCGCGAUGUAAAGGGUACCAGUGCCGAGCAACAGAGGAUUGAGCAUCA
B21: chr10:127900053:127900054:+_ENSMUSG00000025369_ENSMUST00000099131|mus_mus|motif|central (ssRNA)
RNA: GGGAGUUCUACAGUCCGACGAUCACUCUUGAAUUUGUAGGCAGCUGCAAGAAUAUGGCAGAGGGAUCCUCCUGCUUUGAAAUCGGGGAAACAUUUGAUCGGCAGUUUAGUAAGCGGUGCGUUGCUGACAUGUUUGCCAAAAACCAACAGAGGAUUGAGCAUCA
B22: chr1:39494447:39494448:+_ENSG00000168653_ENST00000372967|hu_mus|hu_hu_hu_mus_False|1_108 (ssRNA)
RNA: GGGAGUUCUACAGUCCGACGAUCGCAUCGACCAGCCUUCUUAUAGGGCUGUUCUGCGCUUAGGAACAUAAAGUGCCGGUCCAGGCUGAUGCCCAGCUUUUUCUGUAUGUCAAGGAAAGGCAUGGCUCUGCAGUGCCCCCUUGACAACAGAGGAUUGAGCAUCA

For the assay, the target named is T1, UNK ZnF1-3. The assay can be described thus: nsRBNS (natural sequence RNA bind-n-seq); RBNS binding buffer (assumed for nsRBNS): 25 mM Tris pH 7.5, 150 mM KCl, 3 mM MgCl2, 0.01% Triton X-100, 500 ug/ml BSA, 20 U/ml SUPERase-In, 4 C; UNK is unkempt and MSI1 is Musashi-1; names of the RNAs are library labels; protein concentration not given here; high values mean tight binding.
For the molecule B1, the binding signal is 1.27 enrichment R. The molecule B2 gave a binding signal of 0.855 enrichment R. B3 gave a binding signal of 1.2 enrichment R.

B4 registered a binding signal of 1.04 enrichment R.

B5 came in with a binding signal of 1.93 enrichment R. Turning to B6, the binding signal came to 0.952 enrichment R.

With B7, the binding signal was found to be 1.1 enrichment R. In turn, B8 yielded a binding signal of 0.327 enrichment R. To B9 belongs 0.683 enrichment R; to B10, 1.52 enrichment R; to B11, 1.52 enrichment R. B12 gave a binding signal of 0.813 enrichment R. Molecule B13 returned a binding signal of 1 enrichment R. To B14 belongs 1 enrichment R. To B15 belongs 0.631 enrichment R.

The molecule B16 had a binding signal of 0.649 enrichment R.

With B17, the binding signal was found to be 0.615 enrichment R.

In the case of B18, the binding signal came out at 2.18 enrichment R.

The molecule B19 gave a binding signal of 0.862 enrichment R. To B20 belongs 1.1 enrichment R; to B21, 0.885 enrichment R; to B22, 0.877 enrichment R.
